# Experimental data published in PubChem BioAssay (Tox21).
# Values joined by “and” are separate entries in the source; they are usually repeats but may differ in a detail not shown here. Identical values can stand only once. This list was built around the results that the source calls inconclusive (neither active nor inactive); the mix of calls is not that of the screen. Potencies of inconclusive entries are doubtful fits and often do not repeat. Active and inactive are the calls of the source. Unless noted, calls follow the shape of the dose curve; as a rule, active = well fitted curve in the direction sought with a large enough effect in the repeat runs; inconclusive = weak or mixed curves; inactive = no such curve, though single readings can be large; an effect the other way counts as inactive or inconclusive.
# Test: qHTS assay for small molecule agonists of the antioxidant response element (ARE) signaling pathway (AID 743202; active = well fitted activation curve with a large enough effect in the signal ratio in the repeat runs, not every such curve was filed as active; inconclusive = weak or mixed curves, or effect the other way; inactive = no such curve, though single readings can be large or run the other way; the % refers to the signal ratio; as to activation: % is scaled to controls: 0 for no effect and ±100 for the full control effect)
# Conditions: HepG2 ARE-bla reporter, beta-lactamase FRET, 16 h; activation: at 73.3 µM (top of the series) unless noted
# In short: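 Compounds delivered in DMSO to ARE-bla HepG2 cells (2,000 cells/well, pre-incubated 5 h) and left 16 h at 37 C. LiveBLAzer B/G FRET substrate then added for 2 h at RT before fluorescence reading.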
# Potency is read from the fitted curve at half-maximal effect; tags tell the direction and shape of the fitted curve or compound fluorescence and quenching.
SMILES,Potency,activation
Cc1ccccc1N=C(N)Nc1ccccc1C,inactive,–
CNC(=O)c1ccccc1Sc1ccc2c(/C=C/c3ccccn3)n[nH]c2c1,inconclusive: 3.76 µM,–
CN1CCCC1=O,inactive,–
C=C[Si](OC(=C)C)(OC(=C)C)OC(=C)C,inactive,–
CC(=O)c1ccc([N+](=O)[O-])cc1,inactive,–
O=C1Cc2cc(Cl)ccc2N1,active: 21.1 µM,–
Cc1ccc(C(C)(C)O)cc1,inactive,–
C(=C\c1ccccc1)/c1ccccc1,"inconclusive: 38.3 µM [rising, partial curve, poor fit]",–
CCCCCCCC/C=C\CCCCCCCC(=O)OCC,–,inconclusive: 25%
CCCCCCCCOS(=O)(=O)O,inactive,–
CC(=O)C1C(=O)C=C(C)OC1=O (stereo unspecified),–,inconclusive: 0.398%
CC(C)=CCC/C(C)=C/CC/C(C)=C/CCC(=O)OC/C=C(\C)CCC=C(C)C,inactive,–
C=C(C)CC(C)(C)C,–,inconclusive: 4.61%
Cc1cccc(C)c1NC(=O)c1cc(S(N)(=O)=O)c(Cl)cc1O,inactive,–
CC1=CCC(=C(C)C)CC1,–,inconclusive: 22.9%
CC(=O)OC/C=C(/C)CCC=C(C)C,inactive,–
C=C[C@H]1CN2CC[C@H]1C[C@@H]2[C@@H](O)c1ccnc2ccc(OC)cc12,inactive,–
O=Cc1ccc(F)cc1,–,inconclusive: -0.595%
C/C=C/c1ccc(O)c(OC)c1,–,inconclusive: 28%
CN(C)c1ccc(N=NS(=O)(=O)O)cc1,active: 8.63 µM,–
O=c1[nH]ncc2ccccc12,inactive,–
CCCCCCCCCCCC(=O)OC,–,inconclusive: -13%
CC1=CCC(C(C)C)=CC1,inactive,–
CN(C)CCOC(c1ccccc1)c1ccccc1 (tested in a mixture with another compound),inactive,–

# Test: qHTS assay for small molecule agonists of the antioxidant response element (ARE) signaling pathway - cell viability counter screen (AID 743203; calls by dose curve; also: nearly all actives have a fitted effect of over 55% in size)
# Conditions: ARE-bla HepG2 viability, CellTiter-Glo luminescence, 16 h; viability change, negative = cytotoxic: at 73.3 µM (top of the series)
# In short: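 Seeded at 2,000 cells/well, ARE-bla HepG2 cells were incubated 5 hrs before compound addition. After 16 hrs of treatment at 37C with 5% CO2, CellTiter-Glo reagent was added and luminescence read 30 min later.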
row,SMILES,Potency
1,Cc1c(O)cccc1C(=O)N[C@@H](CSc1ccccc1)[C@H](O)CN1C[C@H]2CCCC[C@H]2C[C@H]1C(=O)NC(C)(C)C,active: 15 µM and active: 26.6 µM
2,CC[C@H]1CN2CCc3cc(OC)c(OC)cc3[C@@H]2C[C@@H]1C[C@H]1NCCc2cc(OC)c(OC)cc21,"active: 24.4 µM and inconclusive: 26.6 µM [cytotoxic, partial curve]"
3,Clc1sc(Cl)c(Cl)c1Cl,"inconclusive: 13.7 µM [cytotoxic, full curve, poor fit]"
4,CNCCC(Oc1ccc(C(F)(F)F)cc1)c1ccccc1 (stereo unspecified),inconclusive: 29.8 µM [cytotoxic]

# Test: qHTS assay for small molecule activators of the heat shock response signaling pathway - cell viability counter screen (AID 743209); also: nearly all actives have a fitted effect of over 50% in size; as to activity change, negative = cytotoxicity: % is scaled to controls: 0 for no effect and ±100 for the full control effect
# Conditions: HSE-bla HeLa viability, CellTiter-Glo luminescence, 5 h; activity change, negative = cytotoxicity: at 62.6 µM (top of the series) unless noted
# In short: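 First, HSE-bla HeLa cells were seeded at 1500 cells/well and kept overnight at 37 C. Next, compounds were pinned in and incubated 5 h. After the FRET substrate step, CellTiter-Glo was added and luminescence read 30 min later.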
row,SMILES,Potency
1,CC[C@H]1CN2CCc3cc(OC)c(OC)cc3[C@@H]2C[C@@H]1C[C@H]1NCCc2cc(OC)c(OC)cc21,active: 2.46 µM and active: 10.6 µM
2,CCCc1ccc(OC)cc1,inactive
3,[Cl][In]([Cl])[Cl],"inconclusive: 76.9 nM [rising, full curve, poor fit]"

# Test: qHTS assay for small molecule activators of the heat shock response signaling pathway (AID 743210; active = well fitted activation curve with a large enough effect in the signal ratio in the repeat runs, with a control signal flat, not every such curve was filed as active; inconclusive = weak or mixed curves; the % refers to the signal ratio;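 as to activation: HeLa cells with beta-lactamase reporter driven by heat shock elements; % is scaled to controls: 0 for no effect and ±100 for the full control effect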)
# Conditions: HeLa HSE-bla reporter, beta-lactamase ratio, 5 h; activation: at 62.6 µM (top of the series) unless noted
# In short: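 Reporter gene assay: HeLa cells stably bearing an HSE-bla construct, compound treatment 5 h at 37 C, LiveBLAzer substrate 2.5 h at RT, fluorescence intensity.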
row,SMILES,Potency
1,C=C[Si](OC(=C)C)(OC(=C)C)OC(=C)C,inactive
2,CC(=O)c1ccc([N+](=O)[O-])cc1,inactive
3,CC[C@H]1CN2CCc3cc(OC)c(OC)cc3[C@@H]2C[C@@H]1C[C@H]1NCCc2cc(OC)c(OC)cc21,"inconclusive: 0.619 µM [falling, partial curve]"
4,CN(C)CCOC(c1ccccc1)c1ccccc1 (tested in a mixture with another compound),inconclusive: 62.1 µM [activator]

# Test: qHTS assay to identify small molecule agonists of the peroxisome proliferator-activated receptor delta (PPARd) signaling pathway - cell viability counter screen (AID 743211); also: nearly all actives have a fitted effect of over 55% in size; as to activity change, negative = cytotoxicity: % is scaled to controls: 0 for no effect and ±100 for the full control effect
# Conditions: PPARd-bla HEK293H viability, CellTiter-Glo luminescence, 17 h; activity change, negative = cytotoxicity: at 62.6 µM (top of the series) unless noted
# In short: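 Counter screen for cytotoxicity run in parallel with the PPARd reporter screen. Beta-lactamase reporter HEK293H cells exposed to compounds 17 h; ATP-based CellTiter-Glo luminescence quantified viability.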
SMILES,"activity change, negative = cytotoxicity",Potency
CCCCCCCCC=O,inconclusive: -38% [cytotoxic],–
CNC(=O)c1ccccc1Sc1ccc2c(/C=C/c3ccccn3)n[nH]c2c1,–,"inconclusive: 33.5 µM [cytotoxic, single point]"
CN1CCCC1=O,–,"inconclusive: 35.9 µM [cytotoxic, partial curve, poor fit]"
Cc1c(O)cccc1C(=O)N[C@@H](CSc1ccccc1)[C@H](O)CN1C[C@H]2CCCC[C@H]2C[C@H]1C(=O)NC(C)(C)C,–,active: 7.56 µM and active: 18.8 µM
CC[C@H]1CN2CCc3cc(OC)c(OC)cc3[C@@H]2C[C@@H]1C[C@H]1NCCc2cc(OC)c(OC)cc21,–,"active: 43.8 µM and inconclusive: 668 nM [cytotoxic, full curve]"
CN1CCCN=C1COC(=O)C(O)(c1ccccc1)C1CCCCC1 (stereo unspecified),–,"inconclusive: 13.3 µM [cytotoxic, partial curve, poor fit]"
CN(C)c1ccc(N=NS(=O)(=O)O)cc1,–,"inconclusive: 20.5 µM [rising, partial curve]"
[Cl][In]([Cl])[Cl],–,"inconclusive: 4.9 µM [cytotoxic, full curve]"
CC(O)CN(CCN(CC(C)O)CC(C)O)CC(C)O (stereo unspecified),–,"inconclusive: 0.28 µM [rising, full curve, poor fit]"
CN(C)CCOC(c1ccccc1)c1ccccc1 (tested in a mixture with another compound),–,"inconclusive: 24.7 µM [cytotoxic, partial curve, poor fit]"
CNC[C@H](O)[C@@H](O)[C@H](O)[C@H](O)CO,–,"inconclusive: 1.06 µM [cytotoxic, single point]"
